Reference: PubChem BioAssay AID1224903 (Bradner/Qi Labs at DFCI, 2016)
The other results are listed elsewhere or left out. Shown are side measurements of this screen, not its main read-out; they come without a call. Compounds called inactive in the main read-out are mostly missing here.

biological target: Chromobox protein homolog 7 (Homo sapiens) (UniProt O95931); assay: blockers of CBX7 binding to H3K27me3 peptide – biochemical, AlphaScreen, primary screen (AID 1224903); conditions: AlphaScreen His6-CBX7 / biotin-H3K27me3 peptide binding; measured here: z-score of CBX7 signal; stronger effect = lower value
Chain of UniProt O95931 (O95931 whole entry, looked up): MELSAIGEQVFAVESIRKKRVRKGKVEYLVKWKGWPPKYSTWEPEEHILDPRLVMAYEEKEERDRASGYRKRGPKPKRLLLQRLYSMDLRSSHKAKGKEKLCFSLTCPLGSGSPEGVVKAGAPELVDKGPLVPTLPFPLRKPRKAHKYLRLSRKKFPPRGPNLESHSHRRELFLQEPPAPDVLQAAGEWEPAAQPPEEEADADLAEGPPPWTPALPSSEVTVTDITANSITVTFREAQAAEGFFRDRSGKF

| SMILES | z-score |
| --- | --- |
| Cc1ccccc1OCc1nc(C#N)c(N2CCCCCC2)o1 | -3.29 |
| CCOc1ccc(-c2nnc(Nc3cccc(O)c3)c3ccccc23)cc1 | -2.37 |
| O=C(Nc1ccc2oc(-c3ccncc3)nc2c1)c1ccc(-c2ccc(F)cc2)o1 | -4.94 |
| CCCCn1cnc2cc(NCc3ccccc3OCC)ccc21 | -23.3 |
| CCCn1c(=O)c(C(=O)NC(C)c2ccccc2)c(O)c2ccccc21 (centres undefined) | -4.53 |
| O=C(Nc1nc(-c2ccccn2)cs1)c1ccc(S(=O)(=O)N2CCCCC2)cc1 | -18.2 |
| CCc1nnc(NC(=O)c2ccc(S(=O)(=O)N(C)C3CCCCC3)cc2)o1 | -10.3 |
| CCC(=C(c1ccc(OC)cc1)c1ccc(OC)cc1)c1cn(CCCN(C)C)c2ccccc12 | -4.56 |
| CCCN1C(=O)C(O)(CC(=O)c2ccc(C(C)C)cc2)c2cc(Br)ccc21 (centres undefined) | -0.972 |
| c1cc2c(cc1Nc1nc3nonc3nc1Nc1ccc3c(c1)OCO3)OCO2 | -7.98 |
| Cc1ccc(Cn2cc(CCC(=O)NCc3cccnc3)c3ccccc32)cc1 | -0.736 |
| CC1CCc2cc(F)ccc2N1C(=O)CCCN1C(=O)c2cccnc2C1=O (centres undefined) | -5.1 |
| Clc1ccc(-c2csc(Nc3ccc(Br)cc3)n2)cc1Cl | -9.3 |
| COc1ccc(Cl)cc1S(=O)(=O)NCCc1c(C)[nH]c2ccc(C)cc12 | -0.52 |
| O=C(CC(Sc1cccc2cccnc12)c1ccc(OC(F)F)cc1)c1ccco1 (centres undefined) | -3.92 |
| Cc1ccc2c(c1)Oc1cc([N+](=O)[O-])cc(Oc3cccc(Cl)c3Cl)c1C(=O)N2 | -14.6 |
| C=CCc1cc(C)ccc1OCC(O)CN1CCN(c2ccccc2)CC1 (centres undefined) | -1.26 |
| CC1CCN(c2oc(-c3ccccc3)nc2C#N)CC1 | -0.694 |
| COc1cccc(-c2nc(-c3ccccc3)c(-c3cc([N+](=O)[O-])ccc3C)[nH]2)c1 | -0.527 |
| CCN(CC)c1ccc(NC2c3ccccc3C(=O)N2c2ccc(Cl)cn2)c(C)c1 (centres undefined) | -12 |
| COc1ccc(OC)c(NCC(O)Cn2c3ccccc3c3ccccc32)c1 (centres undefined) | -4.38 |
| Fc1ccc(-c2[nH]c(-c3c[nH]c4ccc(Br)cc34)nc2-c2ccccc2)cc1 | -0.542 |
| Cc1ccc(Nc2nc(-c3c(C)nc4cc(C)ccn34)cs2)c(C)c1 | -0.657 |

| SMILES | z-score |
| --- | --- |
| CC(=O)Nc1ccc(Nc2nc(-c3ccccn3)cs2)cc1 | -18.6 |
| CCOC(=O)c1cnc2c(OC)cccc2c1N1CCC(Cc2ccccc2)CC1 | -0.65 |
| O=C1Nc2ccccc2SC(c2ccccc2)C1O (centres undefined) | -10.4 |
| CC(C)Cc1ccc(-c2csc(Nc3ccc(Oc4ccccc4)cc3)n2)cc1 | -8.87 |
| O=C(Nc1nnc(-c2ccc(F)cc2)o1)c1ccc(S(=O)(=O)N2CCCC2)cc1 | -4.34 |
| COc1ccc(-c2csc(Nc3ccc(C)c(Cl)c3)n2)cc1F | -10.5 |
| COc1ccc(OC)c(NC(=O)CSc2nccn2-c2ccc(F)cc2)c1 | -1.83 |
| COc1ccc(-n2c(-c3ccc(C)cc3)cc3c2CC(C)(C)CC3=O)c(OC)c1 | -7.22 |
| Cc1cc(NC(=O)CSc2nnc(CNC(=O)c3c(F)cccc3Cl)o2)no1 | -15.9 |
| O=C(Nc1ccccn1)c1nc[nH]c1C(=O)O | -7.96 |
| COc1ccc(NC(=O)CSc2nccn2-c2ccc(Cl)cc2)c(OC)c1 | -1.81 |
| COc1cc(-c2nc(-c3ccccc3)c(-c3cccs3)[nH]2)cc(OC)c1O | -1.05 |
| O=C(CCc1nc2sc3c(c2c(=O)[nH]1)CCCC3)NCc1ccccn1 | -3.09 |
| O=C(Nc1ccc(Br)cc1)c1nc[nH]c1C(=O)O | -18.2 |
| Cc1ccc(C(NC(=O)CCc2ccccc2)c2ccc3cccnc3c2O)cc1 (centres undefined) | -3.27 |
| O=C(CCc1cn(Cc2ccccc2)c2ccccc12)NCc1ccccc1Cl | -8.83 |
| CCc1ccc(C(=O)CC2(O)C(=O)N(Cc3ccc(Cl)cc3)c3ccccc32)cc1 (centres undefined) | -7.31 |
| CC(C)(C)c1ccc2c(c1)N(CC(=O)NCCc1ccccc1)C(=O)CO2 | -10.2 |
| COc1cc(S(=O)(=O)NCCc2c(C)[nH]c3ccc(C)cc23)c(C)cc1C | -0.651 |
| CCn1c2c(c3cc(C4CCCCC4)ccc31)CCCC2O (centres undefined) | -1.48 |
| COc1cc(C)c(S(=O)(=O)NCCc2c(C)[nH]c3ccc(C)cc23)cc1C | -0.621 |
| Cc1ccn2c(Nc3ccc(C(C)C)cc3)c(-c3ccccn3)nc2c1 | -21.4 |
| Cc1ccc2nsnc2c1NC(=O)c1ncn[nH]1 | -5.93 |

| SMILES | z-score |
| --- | --- |
| Cc1nnc(NC(=O)c2ccc(S(=O)(=O)N3CC(C)OC(C)C3)cc2)o1 (centres undefined) | -1.32 |
| CCc1nc2ccccc2c(NC(=O)CN2CCN(C)CC2)c1C | -1.64 |
| O=C(O)c1c[nH]c2ccc(S(=O)(=O)NCc3ccc4c(c3)OCO4)cc2c1=O | -7 |
| CCN(c1ccccc1)S(=O)(=O)c1ccc(C(=O)Nc2nnc(C3CC3)o2)cc1 | -1.62 |
| CC(=O)Nc1nc(C)c(-c2csc(Nc3ccc(N)cc3)n2)s1 | -2.34 |
| COc1cc(-c2nc(-c3cccs3)c(-c3cccs3)[nH]2)ccc1O | -6.34 |
| CCCCn1cnc2cc(NCc3ccccc3Cl)ccc21 | -22.3 |
| COc1ccccc1-c1nnc(NC(=O)c2ccc(S(=O)(=O)N(C)C)cc2)o1 | -16.2 |
| Cc1cc(=O)n2ccc(CN3CCCCC3)c(O)c2n1 | -6.25 |
| Cc1ccc(NCC(O)Cn2c3c(c4cc(C)ccc42)CCCC3)c(C)c1 (centres undefined) | -5.67 |
| Cc1cccc(Nc2nc(-c3sc(N)nc3C)cs2)c1 | -10.2 |
| Cc1nnc(NC(=O)c2ccc(S(=O)(=O)N(C)C)cc2)o1 | -25.7 |
| CCc1ccc(NC(=O)CSc2nccn2-c2cccc(Cl)c2)cc1 | -2.01 |
| O=C(Nc1nc(-c2ccccn2)cs1)c1ccc(Oc2ccccc2)cc1 | -16.1 |
| N#Cc1nc(COc2ccc(F)cc2)oc1N1CCCCC1 | -10.6 |
| CC1NC(=O)NC1CCCCCC(=O)OCC(=O)c1ccccc1 (centres undefined) | -20.9 |
| Cc1cccc(NC(=O)CSc2nccn2-c2ccc(Cl)cc2)c1 | -1.94 |
| CC(C)(C)n1cnc2cc(NCc3ccccc3Cl)ccc21 | -17.3 |
| O=C(CSc1nnnn1-c1ccccc1)Nc1ncccn1 | -4.06 |
| CCCCOc1cccc(-c2nc3c(C(=O)OC)c[nH]n3c2NC2CCCCCC2)c1 | -10.7 |
| COc1ccc(OC)c(CNC(=O)CCCc2cn(C)c3ccccc23)c1 | -9.36 |
| Cc1nc(NCCc2ccc3c(c2)OCCO3)c2cc(-c3ccccc3)sc2n1 | -7.19 |
| Cc1ccnc(Nc2nc(-c3sc(N)nc3C)cs2)c1 | -11.8 |
